Results as given in article PMC4336329 (PLoS ONE, 2015).
In all, about 310,000 compounds went through this assay and about 14,000 (4.5%) showed an effect of 50% or more. Effects have a minus sign here. Some of the results follow.

biological target: human ether-à-go-go-related gene (hERG) potassium channel (human, UniProt Q12809); assay: primary screen, population patch clamp on CHO cells stably expressing hERG
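Further: peak tail current of the secondary pulse compared with the same well before compound.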

Sequence of human ether-à-go-go-related gene (hERG) potassium channel (Q12809 whole entry, looked up): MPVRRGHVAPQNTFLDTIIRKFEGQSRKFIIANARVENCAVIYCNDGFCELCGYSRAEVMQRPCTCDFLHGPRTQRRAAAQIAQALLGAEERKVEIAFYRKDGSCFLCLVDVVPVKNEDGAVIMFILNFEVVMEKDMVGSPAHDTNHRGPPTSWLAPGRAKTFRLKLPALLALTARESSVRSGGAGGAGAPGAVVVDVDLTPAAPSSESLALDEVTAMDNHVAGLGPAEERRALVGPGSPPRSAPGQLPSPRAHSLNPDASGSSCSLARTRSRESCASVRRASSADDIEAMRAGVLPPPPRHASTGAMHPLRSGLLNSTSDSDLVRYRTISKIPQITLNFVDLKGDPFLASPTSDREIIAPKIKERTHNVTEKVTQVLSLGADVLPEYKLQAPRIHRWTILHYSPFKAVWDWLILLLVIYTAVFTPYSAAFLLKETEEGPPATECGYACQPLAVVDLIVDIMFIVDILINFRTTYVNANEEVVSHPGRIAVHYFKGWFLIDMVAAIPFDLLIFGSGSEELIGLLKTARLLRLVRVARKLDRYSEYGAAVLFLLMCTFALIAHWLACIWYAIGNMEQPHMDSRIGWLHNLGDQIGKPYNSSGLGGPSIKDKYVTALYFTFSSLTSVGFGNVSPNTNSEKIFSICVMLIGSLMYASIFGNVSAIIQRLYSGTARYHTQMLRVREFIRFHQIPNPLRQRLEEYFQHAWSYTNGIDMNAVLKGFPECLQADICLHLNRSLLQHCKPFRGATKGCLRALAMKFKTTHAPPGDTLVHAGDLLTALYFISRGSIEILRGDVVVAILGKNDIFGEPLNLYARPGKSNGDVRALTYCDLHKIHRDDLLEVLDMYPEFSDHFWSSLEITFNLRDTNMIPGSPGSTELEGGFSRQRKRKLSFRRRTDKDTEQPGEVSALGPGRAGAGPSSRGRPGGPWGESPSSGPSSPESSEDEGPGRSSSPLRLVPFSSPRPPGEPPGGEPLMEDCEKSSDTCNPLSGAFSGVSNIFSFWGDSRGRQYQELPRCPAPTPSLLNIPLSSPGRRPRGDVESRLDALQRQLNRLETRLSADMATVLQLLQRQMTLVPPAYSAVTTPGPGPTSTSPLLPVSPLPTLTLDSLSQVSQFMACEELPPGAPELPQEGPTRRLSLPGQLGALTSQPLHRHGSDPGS

Compound	hERG current change (%, negative = inhibition) at 10uM [%]
CCOc1ccc2oc(C(=O)N(C)CCc3ccc(OC)c(OC)c3)c(C)c2c1	-30.9
CCCCN(C(=O)/C=C/c1ccco1)c1c(N)n(Cc2ccccc2)c(=O)[nH]c1=O	5.48
O=C(/C=C/c1ccccc1)NC(=S)NNC(=O)c1cccnc1	23.1
Cc1cc(S(=O)(=O)NCC(C)C)ccc1OCC(=O)NCc1ccco1	-73.4
Cn1c(O)c(C(=NCCN2CCCCC2)c2ccccc2Cl)c(=O)n(C)c1=O	1.78
O=C(c1ccc(COc2ccccc2Cl)o1)N1CCOCC1	-7.89
CCN(c1ccccc1)S(=O)(=O)c1ccc(Cl)c(NC(=O)CN2C(=O)NC3(CCCC3)C2=O)c1	-22
Cc1ccc(-n2nc3c(c2NC(=O)C2CCCC2)CS(=O)(=O)C3)cc1	9.25
O=C(Nc1cccc(/C=C/c2ccccn2)c1)c1cc(Cl)ccn1	-1.01
CCN(C(=O)COC(=O)c1ccc(Cl)nc1)C1CCS(=O)(=O)C1 (stereo not drawn)	16
Cc1ccc(NC(=S)Nc2ccc(Cl)c(Cl)c2)c(OC(F)F)c1	12.4
CC12CN3CCN(C1)CC(C)(C3)C2=NN	15.6
COc1ccc(C2C(C(N)=O)=C(C)Nc3nc(-c4ccccc4)nn32)cc1OC (stereo not drawn)	2.91
CC(=O)Nc1ccc(NC(=O)CSc2ncnc3c2cnn3Cc2ccccc2)cc1	-2.36
O=C(OCc1cccc(Cl)c1)c1cc([N+](=O)[O-])ccc1N1CCOCC1	-38.7
C=CCNC(=O)C1CC(=O)N(c2ccc(OCC(=O)Nc3ccccc3)cc2)C1 (stereo not drawn)	-15.8
Cc1cc(S(=O)(=O)NCc2ccco2)c(C)cc1Cl	14.1
CC(CCC(=O)Nc1nncs1)C(=O)O (stereo not drawn)	-6.61
CN(c1ccccc1)S(=O)(=O)c1ccc2c(c1)oc(=O)n2C	13.6
O=C(COc1cccc2c1CCN(Cc1ccc(Cl)cc1)C2=O)N1CCOCC1	-60.2
COCCN(C(=O)COC(=O)CCc1nc2ccccc2s1)c1c(N)n(Cc2ccccc2)c(=O)[nH]c1=O	8.28
COc1cccc([C@@]2(O)CCCC[C@@H]2CN(C)C)c1.Cl	15.8

Compound	hERG current change (%, negative = inhibition) at 10uM [%]
O=C(NCc1ccc(F)cc1)C(C(=O)NCc1ccc(F)cc1)c1ncc(C(F)(F)F)cc1Cl	1.56
O=C1NC(c2ccc(Cl)c([N+](=O)[O-])c2)Nc2ccccc21 (stereo not drawn)	20
Cc1nn(C)cc1CN(C)Cc1ccc(OCC(O)CN2CCCCC2)cc1 (stereo not drawn)	-7.47
COc1ccc(Nc2nc3ccc(OC)cc3s2)cc1	13.4
O=C(CCc1n[nH]c(=O)[nH]c1=O)N1CCCCC1	9.5
COc1ccc2oc(=O)c(C(=O)OCc3ccccc3)cc2c1	13.4
CS(=O)(=O)N(CC(=O)NCCSCc1cccc(Cl)c1)c1ccc2c(c1)OCO2	-15.5
Cc1ccc(N(CC(=O)NCCSc2ccccn2)S(C)(=O)=O)cc1	0.263
CCc1ccc(C(c2c(C)nn(-c3ccccc3)c2N)c2c(C)nn(-c3ccccc3)c2N)cc1	-41.2
CNS(=O)(=O)c1cccc(C(=O)OCC(=O)NC2CCCC2)c1	20.7
Brc1ccc(NCc2cccc3ccccc23)nc1	9.86
CC1CC(Nc2ccccc2)c2ccccc2N1C(=O)c1ccccc1F (stereo not drawn)	18.8
Cc1cc(OCC(=O)Nc2ncn[nH]2)ccc1Cl	3.94
O=S(=O)(NCc1ccccc1)c1ccc(Br)c2nsnc12	-14.1
COc1ccc2c(C)cc(SCC(=O)Nc3ccc(Cl)cn3)nc2c1	4.24
O=C(O)c1ccccc1C(=O)Nc1ccc(-n2nc(C(F)(F)F)cc2C(F)(F)F)cc1	12.8
O=C(CNCc1ccc(F)cc1)Nc1ccc(S(=O)(=O)N2CCOCC2)cc1	-14.8
C/C(=C\COc1ccc2ccc(=O)oc2c1)CC[C@@H](O)C(C)(C)O	21.8
Cc1cc(C)n(S(=O)(=O)c2ccccc2)n1	9.53
CCOc1ccc(C2Oc3nc(SC)nnc3-c3ccccc3N2C(C)=O)cc1OC (stereo not drawn)	9.64
C=CCn1c(=O)c2ccccc2n2c(SCc3cc(=O)n4ccsc4n3)nnc12	-3.96
O=C(Nc1ccccc1)N(Cc1ccc2c(c1)OCO2)Cc1nc2ccccc2c(=O)[nH]1	-16.3

Compound	hERG current change (%, negative = inhibition) at 10uM [%]
OC(COc1ccc(OCc2ccccc2)cc1)CN1CCOCC1 (stereo not drawn)	-17
CSCCC(NS(=O)(=O)c1ccccc1)C(=O)OCc1nc2ccsc2c(=O)[nH]1 (stereo not drawn)	2.87
COc1cc(NC(=O)Cn2cnc(S(=O)(=O)N3CCOCC3)c2)cc(OC)c1OC	10.5
CCOC(=O)c1c(C)[nH]c(C)c1C(=O)CSc1nc2ccccc2c(=O)n1-c1ccc(Cl)cc1	3.43
Cc1noc(NS(=O)(=O)c2ccc(NC(=O)CCC3CCCCC3)cc2)c1C	5.59
O=[N+]([O-])c1cc(Cl)ccc1N1CCN(c2ccccc2O)CC1	4.6
CCc1ccc(NC(=O)C2CCN(S(=O)(=O)c3cnc[nH]3)CC2)cc1	9.27
CC(NC(=O)COC(=O)c1cc(Cl)ccc1O)C1CC2CCC1C2 (stereo not drawn)	12
COc1ccc(N2CCN(CCCn3c(=S)[nH]c4ccccc4c3=O)CC2)cc1	-36.7
c1ccc2c(c1)COC(CNC1CCCCC1)OC2	9.14
Cc1cc(C)c(S(=O)(=O)c2ccccc2C)c(SCC(C)C)n1	-5.4
CCOc1ccc(OCC)c(NC(=O)CSc2nc3c(c(=O)n(C)c(=O)n3C)n2CC)c1	-3.77
CC(C)(C)C(=O)N1CCN(c2nc3ccccc3s2)CC1	-14.2
Cc1cccc(-c2nnc(SCc3cc(=O)[nH]c4ccccc34)n2C)c1	-26.1
CCOP(=O)(OCC)C(O)c1cccc([N+](=O)[O-])c1 (stereo not drawn)	8.61
Cc1sc(N/N=C/c2cccs2)nc1-c1ccccc1	2.51
O=C(O)CCCn1c(=S)[nH]c2c(sc3ccc([N+](=O)[O-])cc32)c1=O	23
COc1ccc(/C=C(\NC(=O)c2ccccc2)C(=O)N2CCN(C)CC2)cc1	-76.3
COc1ccc(NC(=O)CSc2nnnn2C2CCCCC2)cc1	-20.5
CN(C)CCNC(=O)CCn1nc(-c2ccc(Cl)cc2)ccc1=O	-15.4
CC(=O)Nc1ccc(S(=O)(=O)Nc2ccc(S(=O)(=O)Nc3nc(C)cc(C)n3)cc2)cc1	20.3
CCOc1ccc(-c2cc(NC(=O)c3c(F)cccc3F)c(C(=O)O)s2)cc1	21

Compound	hERG current change (%, negative = inhibition) at 10uM [%]
CC(=O)OCC(=O)[C@@]1(OC(C)=O)[C@@H](C)C[C@H]2[C@@H]3C[C@H](F)C4=CC(=O)C=C[C@]4(C)[C@@]3(F)[C@@H](O)C[C@@]21C	-15.1
CCCC(CCC)C(=O)Nc1ccc2c(c1)N(C(=O)CCN1CCN(C)CC1)c1ccccc1CC2.Cl	3.54
CCCCNC(=O)CC1S/C(=N/N=C/c2ccc(OC)cc2)NC1=O (stereo not drawn)	17.3
C#C[C@]1(O)CC[C@H]2[C@@H]3CCc4cc(OC5CCCC5)ccc4[C@H]3CC[C@@]21C	16
COc1cc(C)c(Cl)cc1S(=O)(=O)N1CCCC1	7.87
O=C(NC1CCCC1)C1CCN(S(=O)(=O)N2CCCCC2)CC1	9.5
O=C(COC(=O)CCC(=O)c1cccs1)Nc1ccccc1[N+](=O)[O-]	19.5
CN(Cc1ccco1)S(=O)(=O)c1nnc(NC(=O)c2ccc(F)cc2)s1	12.3
CC(C)[C@H](NC(=O)NC1CCCC1)C(=O)O	12.2
CC(=O)NC(C)(C)C1CC=C(C)/C(=N\O)C1 (stereo not drawn)	-11
CC(C)[C@H](NC(=O)C1CCN(S(=O)(=O)c2ccc(F)cc2)CC1)C(=O)N1CCCCCC1	5.18
CNS(=O)(=O)c1cc(O)c2c(S(=O)(=O)NC)cccc2c1	11
Cc1ccc(-c2noc(C3CCCN(C(=O)c4ccccc4Br)C3)n2)cc1 (stereo not drawn)	0.00198
CC(=O)N1CCCc2cc(S(=O)(=O)Nc3ccc(C)cc3C)ccc21	-13.3
Cc1ccc(NC(=O)C2(N(CC(C)C)C(=O)Cn3nnnc3N)CCCCC2)cc1	3.52
CCCCS(=O)(=O)N1CCC(C(=O)Oc2ccc(Cl)cc2)CC1	20.9
COc1ccc(N/N=C(\C#N)C(=O)NCCc2ccc(OC)c(OC)c2)cc1	9.85
O=C(O)CC(Cc1ccc(Br)cc1)C(=O)O (stereo not drawn)	10.1
O=C(CNC(=O)c1ccco1)N/N=C/c1c[nH]c2ccccc12	10.9
CC(N)Cc1c[nH]c2c1ccc1ccccc12.Cl (stereo not drawn)	12.3
Br.CCOc1ccc(C2=Nn3c(CC)nnc3SC2)cc1	-6.9
